# Results reported in PubChem BioAssay (NCATS).
# Values joined by “and” are separate entries in the source; they are usually repeats but may differ in a detail not shown here. Equal entries are not always repeated. The list shows a part of the results. The main result of the screen is listed elsewhere. These columns were measured beside it and carry no call. The list favours compounds with an active or inconclusive main result. Words in brackets tell the shape of the fitted curve; partial curves, single points and poor fits give uncertain potencies.
# Assay: qHTS Assay for Lipid Storage Modulators (AID 1519)
# Settings: Drosophila S3 cells, BODIPY lipid droplet/cell ratio, laser cytometry, cells loaded with oleic acid
# Procedure, shortened: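 Cells seeded at 5,000 per well were treated with compounds over a concentration series and loaded with oleic acid (400 uM, as added). Lipid droplet fluorescence (488 nm excitation, 500-530 nm channel) was read by laser-scanning cytometry and normalized to 20 uM Triacsin C.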
# [1] = measured here: cell count channel max response
# [2] = measured here: cell number channel AC50
# [3] = measured here: lipid (BODIPY) channel AC50
# [4] = measured here: lipid channel max response
# Tags tell the direction and shape of the fitted curve.
Compound,max response [1],AC50 [2],AC50 [3],max response [4]
CCC1C(=O)OCC1Cc1cncn1C (configuration not stated),64.6% and 27.6%,"15.8 µM [rising, partial curve, poor fit]","28.2 µM [rising, partial curve, poor fit] and 25.1 µM [rising, partial curve]",83.8% and 66.7%
CC(C)[C@@]1(NC(=O)[C@@H]2C[C@H]3c4cccc5[nH]cc(c45)C[C@@H]3N(C)C2)O[C@@]2(O)[C@H]3CCCN3C(=O)[C@H](Cc3ccccc3)N2C1=O,52.6% and 39.9%,"4.47 µM [rising, full curve, poor fit] and 7.94 µM [rising, partial curve, poor fit]","3.98 µM [rising, full curve, poor fit]",59.9% and 46.7%
C[C@H](CCC(=O)O)[C@H]1CC[C@@H]2[C@H]3CC[C@H]4C[C@H](O)CC[C@]4(C)[C@@H]3CC[C@@]21C,57.8%,"39.8 µM [rising, single point]","39.8 µM [rising, single point]",73.1%
NCCc1c[nH]c2ccc(O)cc12,-82.5%,"44.7 µM [falling, partial curve, poor fit]","44.7 µM [falling, partial curve, poor fit]",-83.3%
CC(=O)Oc1c2c(c(CC=C(C)C)c3c1C(=O)C1=CC4CC5C(C)(C)OC(C/C=C(\C)C(=O)O)(C4=O)[C@]15O3)OC(C)(CCC=C(C)C)C=C2 (some centres not stated),-93.6%,"22.4 µM [falling, partial curve]","6.31 µM [falling, full curve]",-112%
CC(=O)c1c(O)c(C)c(O)c(Cc2c(O)c3c(c(C(=O)/C=C\c4ccccc4)c2O)OC(C)(C)C=C3)c1O,99.2%,"2.82 µM [rising, full curve, poor fit]","2.82 µM [rising, full curve, poor fit]",132%
O=C(Nc1ccccc1)N1CCC2(CC1)CCN(C(=O)Oc1ccccc1)CC2,5.09%,,"0.0355 µM [rising, full curve, poor fit]",18.4%
Cc1ccc(C[N+](C)(C)C)o1,8.11%,"22.4 µM [rising, single point]","15.8 µM [rising, single point]",17.4%
CCN(CC)c1ncnc2c1ncn2[C@@H]1O[C@H](COP(=O)(O)OP(=O)(O)C(Br)(Br)P(=O)(O)O)[C@@H](O)[C@H]1O,37.1%,"4.47 µM [falling, partial curve, poor fit]","3.55 µM [falling, full curve, poor fit]",36.8%
COc1ccc2c3c1O[C@H]1C(=O)CC[C@@]4(O)C(C2)N(CC2CC2)CCC314 (some centres not stated),-11.2%,"0.1 µM [falling, full curve, poor fit]",,-12.2%
c1ccc2c(c1)OC[C@@H](C1=NCCN1)O2,72.3%,"17.8 µM [rising, partial curve]","20 µM [rising, partial curve]",90%
Clc1ccccc1-c1cncnc1NCCc1cnc[nH]1,44.2%,"0.891 µM [rising, full curve, poor fit]","1 µM [rising, full curve]",56.8%
CC1(C)N(O)C(c2ccc(C(=O)O)cc2)=[N+]([O-])C1(C)C,31.7%,"39.8 µM [rising, single point]","39.8 µM [rising, single point]",43.5%
CC(C)[C@]1(NC(=O)[C@@H]2C=C3c4cccc5[nH]cc(c45)C[C@H]3N(C)C2)O[C@@]2(O)C3CCCN3C(=O)[C@H](Cc3ccccc3)N2C1=O (some centres not stated),78.9%,"15.8 µM [rising, partial curve]","17.8 µM [rising, partial curve]",100%
CN1Cc2c(ccc3c2OCO3)C2C(O)Cc3cc4c(cc3C21)OCO4 (configuration not stated),40.9% and 112%,"7.08 µM [rising, partial curve] and 2 µM [rising, full curve]","5.62 µM [rising, full curve] and 1.58 µM [rising, full curve]",57.2% and 146%
C[C@@]12CC[C@@H]3c4ccc(O)cc4C[C@H](CCCCCCCCCS(=O)CCCC(F)(F)C(F)(F)F)[C@H]3[C@@H]1CC[C@@H]2O (some centres not stated),80.2%,"7.94 µM [rising, partial curve]","7.08 µM [rising, partial curve]",98.9%
Clc1ccc(N2CC3CCC(C2)N3)nn1,66.8%,"39.8 µM [rising, single point]","39.8 µM [rising, single point]",67.8%
c1ccc2nc(C3=NCCN3)cnc2c1,103%,"25.1 µM [rising, partial curve]","28.2 µM [rising, partial curve]",137%
Cn1ccnc1,59.5%,"3.55 µM [falling, full curve, poor fit]","3.55 µM [falling, full curve, poor fit]",62.4%

Compound,max response [1],AC50 [2],AC50 [3],max response [4]
CN1CC[C@@]2(C)c3cc(O)ccc3N(C)[C@@H]12,34.2%,"35.5 µM [rising, single point]",,44.3%
CCCN(CCC)C1Cc2cc(OC)c(OC)cc2C1,68.3%,"3.16 µM [rising, full curve, poor fit]","3.16 µM [rising, full curve]",73.3%
O=C1CC(c2ccc(O)cc2)Oc2cc(O)cc(O)c21 (configuration not stated),36.5%,"31.6 µM [rising, partial curve, poor fit]","31.6 µM [rising, partial curve, poor fit]",50.5%
CCCN1CCO[C@@H]2c3cc(O)ccc3OC[C@@H]21,-34.2%,"0.631 µM [falling, full curve, poor fit]","2.24 µM [falling, partial curve, poor fit]",-36.4%
COc1cc2c(cc1O)C[C@H]1c3c(cc(OC)c(O)c3-2)CCN1C,76.5%,"28.2 µM [rising, partial curve, poor fit]","31.6 µM [rising, partial curve]",103%
COc1ccc(NC(=O)N2CC[C@@]3(CCCN(C(=O)Oc4ccccc4)C3)C2)cc1,21%,,"0.0355 µM [rising, full curve, poor fit]",34.2%
O[N+]1=CC=CCC1=S.On1ccccc1=S.[Zn],-8.58%,,"2.51 µM [falling, full curve, poor fit]",-60.4%
CN1C[C@H](C(=O)N[C@]2(C)O[C@@]3(O)[C@H]4CCCN4C(=O)[C@H](Cc4ccccc4)N3C2=O)C[C@H]2c3cccc4[nH]cc(c34)C[C@@H]21,48.7%,"3.16 µM [rising, full curve, poor fit]","2.82 µM [rising, full curve, poor fit]",57.2%
c1cc2c(cc1[C@H]1OC[C@@H]3[C@H]1CO[C@H]3c1ccc3c(c1)OCO3)OCO2,126%,"12.6 µM [rising, partial curve]","12.6 µM [rising, partial curve]",162%
CCCCCCC(C)(C)c1ccc([C@@H]2C[C@H](O)CC[C@@H]2CCCO)c(O)c1,44.6%,"2.82 µM [rising, full curve]","2.82 µM [rising, full curve]",58.8%
COC(=O)[C@]1(C)CC[C@@]2(C)CC[C@@]3(C)C4=CC=C5C(=CC(=O)C(O)=C5C)[C@@]4(C)CC[C@@]3(C)C2C1 (some centres not stated),-84.3%,"20 µM [falling, partial curve]","7.08 µM [falling, partial curve]",-98.7%
CC(=O)NBr,46.2%,"39.8 µM [rising, single point]","39.8 µM [rising, single point]",46.1%
O=C(Cc1ccc(Cl)c(Cl)c1)N1CCCC[C@H]1CN1CCCC1,47.9%,"31.6 µM [rising, partial curve, poor fit]","31.6 µM [rising, partial curve, poor fit]",67.2%
NN=C(N)N,33.7% and 8.65%,"4.47 µM [falling, full curve, poor fit]","4.47 µM [falling, full curve, poor fit]",37% and 9.61%
O=P(O)(O)C(Cl)(Cl)P(=O)(O)O,56.6%,"39.8 µM [rising, single point]","39.8 µM [rising, single point]",56.9%
NO,42.9%,"39.8 µM [rising, single point]","39.8 µM [rising, single point]",41.6%
c1ccc(C2CC2)c(OCC2=NCCN2)c1,51.7%,"3.16 µM [falling, partial curve, poor fit]","3.16 µM [falling, partial curve, poor fit]",50%
CC(C)C1C(=O)N2CCCC2[C@]2(O)O[C@@](NC(=O)[C@@H]3C=C4c5cccc6[nH]cc(c56)C[C@H]4N(C)C3)(C(C)C)C(=O)N12 (some centres not stated),61%,"12.6 µM [rising, partial curve]","14.1 µM [rising, partial curve]",79.6%
Oc1ccc2c3c1O[C@H]1c4c(c5ccccc5n4Cc4ccccc4)C[C@]4(O)[C@H](C2)N(CC2CC2)CC[C@@]314,83.9%,"31.6 µM [rising, partial curve, poor fit]","35.5 µM [rising, partial curve, poor fit]",99.4%
